Test results reported in the BET-seq Pho4 binding data (Le et al. 2018).
Some of the results follow. Values were computed here from the reads of four pooled replicates and scatter widely.

Each sequence was assayed against T1, Pho4 (S. cerevisiae) (UniProt P07270) (assay: relative binding free energy (BET-seq); higher = weaker binding). Conditions: reference: library average.
T1 sequence: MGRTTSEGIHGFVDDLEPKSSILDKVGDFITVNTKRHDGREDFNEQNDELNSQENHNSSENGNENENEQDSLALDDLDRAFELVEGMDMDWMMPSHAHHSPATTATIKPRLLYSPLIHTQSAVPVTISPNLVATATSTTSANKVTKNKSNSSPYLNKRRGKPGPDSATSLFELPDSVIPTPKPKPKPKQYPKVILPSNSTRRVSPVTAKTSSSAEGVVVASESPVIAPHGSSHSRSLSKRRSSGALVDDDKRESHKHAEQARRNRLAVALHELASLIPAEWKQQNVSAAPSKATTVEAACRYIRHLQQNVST

Relative binding free energy, -0.01 kcal/mol:
AGATCCACGTGTATGT
TTCTACACGTGGTGGT
AGTCGCACGTGGATAT
AGAGTCACGTGGGGCA

Relative binding free energy, 0.39 kcal/mol:
TAGATCACGTGAGCTG

Relative binding free energy, -0.07 kcal/mol:
ATGGGCACGTGGGATT
TGTCCCACGTGTGGTA
AGTTGCACGTGCGTGT

Relative binding free energy, 0.1 kcal/mol:
CGGGTCACGTGCGCTG
GTGGTCACGTGTAGTA
TTTCACACGTGATATT
GAGGACACGTGGAGTG
GCGAGCACGTGAGTGT
ATGTACACGTGTAGTG
AGGAACACGTGGTGAT
TATTTCACGTGGGTAG

Relative binding free energy, 0.03 kcal/mol:
AATTACACGTGGTGCA
CGGAACACGTGGGATG
GTAGGCACGTGGTTAA
AGTGTCACGTGCAGTT

Relative binding free energy, 0 kcal/mol:
AGCTGCACGTGTGGTA
TATAACACGTGTTGGG
TTACACACGTGTTAGT
TTGTACACGTGTTTTC
TTACACACGTGGTAGG

Relative binding free energy, 0.15 kcal/mol:
TGATACACGTGATGAT
TTGAACACGTGTAGGT
GAGAACACGTGGGATT

Relative binding free energy, 0.09 kcal/mol:
TAAAACACGTGTAGGG
GAGGGCACGTGAGTCA
TGTCTCACGTGCTTTG
GTTGTCACGTGCGGAT
AAAATCACGTGGGTTT

Relative binding free energy, 0.36 kcal/mol:
GAGGTCACGTGACTTG

Relative binding free energy, 0.29 kcal/mol:
AGTTTCACGTGTTTCA
TGATTCACGTGCGGCG

Relative binding free energy, -0.04 kcal/mol:
TGCGGCACGTGTAGGA
AATATCACGTGGGAGG

Relative binding free energy, -0.12 kcal/mol:
AGTGACACGTGGATAG
CATGGCACGTGTTGTG
TGTGTCACGTGGGTAG

Relative binding free energy, 0.04 kcal/mol:
GTATGCACGTGGATTT
GTGTCCACGTGGTAGT
GGGGGCACGTGATCGC
CTGGGCACGTGTGGAT
CTGGGCACGTGATTTT

Relative binding free energy, -0.21 kcal/mol:
GTGGGCACGTGGCTGC
TTGCGCACGTGGCTTG
CGTAGCACGTGGTGCG

Relative binding free energy, 0.25 kcal/mol:
CAGGTCACGTGTGGGT
TTGGACACGTGAGTAA
TTTGTCACGTGTGGGG
GTGTTCACGTGGTGAA

Relative binding free energy, 0.24 kcal/mol:
TAGGTCACGTGAATTA
GGGGTCACGTGACGCT
GAAAGCACGTGAAGGG
AATTTCACGTGTTACA
TGAGTCACGTGAAGCT
TGAAACACGTGAGTAG

Relative binding free energy, -0.06 kcal/mol:
TGTGTCACGTGGGGTG
AGTGACACGTGGTTGT
GTTTCCACGTGGTTAT
GGTCACACGTGCGGGG
TTTAACACGTGGTAGG
GTGTGCACGTGGGACG
AAAGGCACGTGACTGG

Relative binding free energy, 0.57 kcal/mol:
AGCTTCACGTGATGAG

Relative binding free energy, 0.06 kcal/mol:
TCGGTCACGTGCGGTG
TTTTGCACGTGGATTG
CGTGTCACGTGTAGTG
TTCTGCACGTGTGGGG
GGGTACACGTGCAGGT
AGCTGCACGTGATGTG
AATGACACGTGTTTAT
GTTAGCACGTGGAAAG
TGTTTCACGTGGCTTC

Relative binding free energy, -0.09 kcal/mol:
TAGGGCACGTGTTTTT
ATTGGCACGTGGTACT
TCCTGCACGTGGGGGG
GGTCGCACGTGGGTTA
TCGTGCACGTGGTAAG

Relative binding free energy, 0.32 kcal/mol:
TGCCACACGTGAGGGT

Relative binding free energy, -0.31 kcal/mol:
TGGGGCACGTGGGCCA

Relative binding free energy, 0.13 kcal/mol:
TTTTACACGTGGGAAT
GGGGACACGTGTTACG
CTGTACACGTGTGGTT
GGTGCCACGTGATCTG
AAGGGCACGTGACGAG

Relative binding free energy, 0.16 kcal/mol:
TAGATCACGTGAGCGT
TCCATCACGTGTGTGG
ATGTTCACGTGGGGAT
GTGATCACGTGTAGAT
ATTCTCACGTGGTGCT

Relative binding free energy, -0.14 kcal/mol:
GTAGACACGTGGGAGA
GAAGGCACGTGGGTGG
GTGCGCACGTGGTTGA
AAGCGCACGTGGTTTA

Relative binding free energy, -0.24 kcal/mol:
TGAAGCACGTGGGTGC
ATGGGCACGTGTGTCT
ATATGCACGTGTCTGT
GCAGGCACGTGGTTGT

Relative binding free energy, 0.21 kcal/mol:
TCATTCACGTGTTGAT
GTTTGCACGTGTTAAC
GTTTGCACGTGTGGGT
AATGTCACGTGATATG

Relative binding free energy, -0.11 kcal/mol:
CGGTGCACGTGCTTGT
TCATGCACGTGGGTGG
TATGACACGTGGCGGT
CTTGGCACGTGTTATT
GATAACACGTGGGTGT

Relative binding free energy, 0.12 kcal/mol:
TTCGTCACGTGTATTG
TTGGACACGTGGATCG
CATTGCACGTGATTGG
TTATACACGTGTATAT

Relative binding free energy, -0.18 kcal/mol:
TGCGGCACGTGCAGTG
GGGGGCACGTGGTTTC
CGTGGCACGTGCCGGG

Relative binding free energy, 0.07 kcal/mol:
TTTTGCACGTGTGGTA
TGGTTCACGTGCGTAA
GGGAACACGTGGTTAT

Relative binding free energy, 0.11 kcal/mol:
GGGTGCACGTGACATT
TATTACACGTGGTTGG
CGTTTCACGTGGGTTA
ACGGGCACGTGAGAGT

Relative binding free energy, 0.02 kcal/mol:
TGAAGCACGTGTGCAG
CGTTACACGTGGGGCG
GTTGCCACGTGCGGAT
TTTGTCACGTGCGGCT
AGTGGCACGTGACTAT
GGGGCCACGTGTCAGT

Relative binding free energy, 0.33 kcal/mol:
AAGTTCACGTGGACGT

Relative binding free energy, -0.25 kcal/mol:
CGTGGCACGTGTCTTG

Relative binding free energy, 0.47 kcal/mol:
ACGCTCACGTGAGGGT

Relative binding free energy, -0.13 kcal/mol:
GTTACCACGTGGGCGG
TAATACACGTGGGTGC
TATGCCACGTGGGTTT
TGAAGCACGTGTCGTG

Relative binding free energy, -0.2 kcal/mol:
ATAAGCACGTGGGCGT
TACAACACGTGGGTGG

Relative binding free energy, 0.22 kcal/mol:
TTGGTCACGTGGATGT
AGGTTCACGTGGTGTA
TTGGTCACGTGATCTA
GGGTTCACGTGCGGAG
GTTGTCACGTGCTAAT
GATGTCACGTGTTGGC
ATTTTCACGTGGTTCT

Relative binding free energy, 0.37 kcal/mol:
AATGTCACGTGAGGTA
GTGAACACGTGAGTGT

Relative binding free energy, -0.15 kcal/mol:
CGTTGCACGTGGGTGG
ACATGCACGTGGGGTA

Relative binding free energy, 0.14 kcal/mol:
GGAGGCACGTGAGGAA
GGAGTCACGTGCTGGC
GGTGTCACGTGGATGG
TGCGGCACGTGAGGGA
AGGTGCACGTGAGAAG
TGAGTCACGTGAGCGG

Relative binding free energy, -0.02 kcal/mol:
GTAAGCACGTGTTATG
AAAGACACGTGGTGAG
TTACTCACGTGGGGCT
TCGGGCACGTGCGTAA

Relative binding free energy, 0.31 kcal/mol:
ATTCACACGTGAGGTG
CGGTTCACGTGATATG

Relative binding free energy, -0.16 kcal/mol:
CAGCGCACGTGGCGGG
GGTGCCACGTGGCAGT

Relative binding free energy, -0.05 kcal/mol:
ACGTCCACGTGGTGTG
TCAAGCACGTGTTTTA
TCATGCACGTGGTAGT
GTGCGCACGTGTCGTG

Relative binding free energy, -0.08 kcal/mol:
ATTACCACGTGTTTGG
TGCTGCACGTGGAGAG
TGGTCCACGTGCGGAG

Relative binding free energy, 0.26 kcal/mol:
TTGGCCACGTGAGTGA
CATTGCACGTGAGTGG

Relative binding free energy, -0.03 kcal/mol:
AGATGCACGTGGTCTG
CGTTACACGTGGCGGG
TGCGACACGTGCGTTT
TTTGCCACGTGGCTAG
TACGTCACGTGGATGT
GTCGTCACGTGGGGAC

Relative binding free energy, 0.53 kcal/mol:
ATTCTCACGTGTAATT

Relative binding free energy, -0.19 kcal/mol:
TCTGGCACGTGGTGAT
GTTCGCACGTGGGTGC
ATGCGCACGTGGAGGA

Relative binding free energy, 0.05 kcal/mol:
CAGTACACGTGTGGGG

Relative binding free energy, 0.3 kcal/mol:
ATCGTCACGTGAGGGT

Relative binding free energy, 0.08 kcal/mol:
GGTTCCACGTGCTGGT
TGTGACACGTGGAACT
TTTCACACGTGGGTTT
CAAGACACGTGGCGGG
TGTCTCACGTGGGGCG
TTGACCACGTGCGGTT
TCAGTCACGTGGCGGT

Relative binding free energy, -0.1 kcal/mol:
AGAGACACGTGTGTGG
GAAAGCACGTGGTGTT
AAGTCCACGTGGGGCT
TGTAGCACGTGTGCAT
CGTGCCACGTGTTGGG
TTTGCCACGTGCTAGG
TAGGCCACGTGGGGAA

Relative binding free energy, 0.2 kcal/mol:
GTTATCACGTGGAGAA
GTTGGCACGTGAGAAG
ATGTACACGTGAGTGA
GGCTTCACGTGGTGAT

Relative binding free energy, 0.17 kcal/mol:
AAAGTCACGTGTGGTT
TTTCTCACGTGGGGCT
ATTCTCACGTGTTTTG
AGGTTCACGTGCAGAG

Relative binding free energy, 0.34 kcal/mol:
TTTTTCACGTGACGTA

Relative binding free energy, 0.23 kcal/mol:
GGGGTCACGTGTGCTA
AAAAACACGTGAGGGG
GAGGCCACGTGGAATG
TATTTCACGTGTTGTG
TATTACACGTGCGGGT

Relative binding free energy, 0.38 kcal/mol:
TGGTTCACGTGATGTG

Relative binding free energy, 0.01 kcal/mol:
GTTCGCACGTGTGGCT
GGGGACACGTGTCGCG
AGATACACGTGTTTGT
GGGCGCACGTGTTGTC
GGGGGCACGTGTGTTG
TTGATCACGTGGGGTA
TAAGCCACGTGTGGTT
CTGGTCACGTGGGTGG

Relative binding free energy, 0.19 kcal/mol:
AATCTCACGTGGGATG
TATCTCACGTGTTGAG
AAATACACGTGGAGTT
ATCTGCACGTGATTAT
TGGGGCACGTGAGGTG

Relative binding free energy, 0.18 kcal/mol:
GGCGTCACGTGATAGT

Relative binding free energy, 0.27 kcal/mol:
TAACACACGTGAGTGT
ATTTTCACGTGTCTTG
